# Positions count from the first letter of the chain named.
# T1: mouse CDCP1-ECD (Mus musculus, UniProt Q5U462)
# T1 construct: 6-histidine purification tag (N); made in house; host or cells: HEK293 (transient)
# T1 sequence (Q5U462 30-667): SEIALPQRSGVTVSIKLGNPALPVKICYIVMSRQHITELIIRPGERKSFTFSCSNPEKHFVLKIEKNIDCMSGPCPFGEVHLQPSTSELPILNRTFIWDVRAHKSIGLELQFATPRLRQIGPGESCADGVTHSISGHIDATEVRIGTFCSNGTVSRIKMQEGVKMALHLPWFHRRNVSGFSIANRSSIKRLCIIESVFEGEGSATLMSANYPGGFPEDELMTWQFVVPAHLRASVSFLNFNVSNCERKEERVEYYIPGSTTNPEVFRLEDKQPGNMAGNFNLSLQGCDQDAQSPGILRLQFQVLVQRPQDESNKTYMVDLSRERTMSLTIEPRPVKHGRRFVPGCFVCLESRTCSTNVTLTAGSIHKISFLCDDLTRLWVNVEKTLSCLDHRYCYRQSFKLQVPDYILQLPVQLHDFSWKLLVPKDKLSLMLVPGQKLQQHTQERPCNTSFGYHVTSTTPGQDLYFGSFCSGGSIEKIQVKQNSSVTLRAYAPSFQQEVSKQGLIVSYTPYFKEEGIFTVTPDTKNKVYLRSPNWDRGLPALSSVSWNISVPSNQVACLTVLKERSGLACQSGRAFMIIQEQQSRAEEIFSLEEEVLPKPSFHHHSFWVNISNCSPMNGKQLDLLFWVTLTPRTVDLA
# B1: CP13E10-291: anti-CDCP1 antibody; heavy chain SEQ ID NO: 46, light chain SEQ ID NO: 17 (antibody)
# heavy: EVQLVQSGAEVKKPGASVKVSCKASGYTFTSYYMHWVRQAPGQGLEWMGIINPSGGSTSYAQKFQGRVTMTRDTSTSTVYMELSSLRSEDTAVYYCARDGELRHFDQVYNYHYYMDVWGQGTTVTVSS[left out - human IgG1 constant region]
# light: EIVLTQSPATLSLSPGERATLSCRASQSVGSYLAWYQQRPGQAPRLLIYDASNRATGIPARFSGSGSGTDFTLTISSLEPEDFAVYYCQQRANVFTFGQGTKVEIKRTVAAPSVFIFPPSDEQLKSGTASVVCLLNNFYPREAKVQWKVDNALQSGNSQESVTEQDSKDSTYSLSSTLTLSKADYEKHKVYACEVTHQGLSSPVTKSFNRGEC
# B2: CP13E10: anti-CDCP1 human IgG1 antibody; heavy chain SEQ ID NO: 10, light chain SEQ ID NO: 17 (antibody)
# heavy: B1 heavy with E101V, H104Y, Q107W, V108L, Y109L, N110D, H112Y, Q120K
# light: B1 light
# B3: antibody 24: non-activating anti-CDCP1 antibody; heavy chain SEQ ID NO: 64, light chain SEQ ID NO: 70 (antibody)
# heavy: QVQLVESGGGVVQPGRSLRLSCAASGFTFSSYGMHWVRQAPGKGLEWVAVISYDGSNKYYADSVKGRFTISRDNSKNTLYLQMNSLRAEDTAVYYCARGVGLPDIWGQGTMVTVSS[left out - human IgG1 constant region]
# light: EIVMTQSPDTLSLSPGERATLSCRASQKIYYSYLAWYQQKPGQAPRLLISGASTRASDISDRFSGGGSGTDFTLTINSLESEDAAVYYCQQYDSLPVTFGRGTKLEIKRTVAAPSVFIFPPSDEQLKSGTASVVCLLNNFYPREAKVQWKVDNALQSGNSQESVTEQDSKDSTYSLSSTLTLSKADYEKHKVYACEVTHQGLSSPVTKSFNRGEC
# B4: antibody 23: anti-CDCP1 antibody; heavy chain SEQ ID NO: 51, light chain SEQ ID NO: 58 (antibody)
# heavy: QVQLVQSGAEVKKPGSSVKVSCKASGGTFSSYAISWVRQAPGQGLEWMGGIIPIFGTANYAQKFQGRVTITADKSTSTAYMELSSLRSEDTAVYYCARDPTYFDWTRRGYYYMDVWGKGTTVTVSS[left out - human IgG1 constant region]
# light: SYELTQPPSVSVSPGQTARITCSGDALPKKYAYWYQQKSGQAPVLVIYEDSKRPSGIPERFSGSSSGTMATLTISGARVEDEADYYCYSTDSSDNHRKGFGGGTKLTVLGQPKAAPSVTLFPPSSEELQANKATLVCLISDFYPGAVTVAWKADSSPVKAGVETTTPSKQSNNKYAASSYLSLTPEQWKSHRSYSCQVTHEGSTVEKTVAPTECS
# B5: antibody 76: activating anti-CDCP1 antibody; heavy chain SEQ ID NO: 51, light chain SEQ ID NO: 74 (antibody)
# heavy: B4 heavy
# light: B4 light with Y33F, R60K, R78Q, H96P, K98G, G99V
# Legend:
# [1] = system: H1299 and MDA-MB-231 cells; assay: Three-dimensional (3D Matrigel) tumor cell invasion assay; type: cell-based, human; settings: MDA-MB-231 and H1299 cells
# Method: (§1) The effect of CDCP1 antibody treatment on cell migration and invasion was also tested due to the known positive role of CDCP1 in the regulation of these cellular processes.
# (§2) The effect of CDCP1 antibody treatment on cell migration and invasion was also tested due to the known positive role of CDCP1 in the regulation of these cellular processes. […] In contrast, the treatment of MCF10A and DLD-1 cells with CDCP1 antibody produced an increase in cell migration. The opposite effects of CDCP1 antibodies on processes associated with tumor formation and growth may be due to the contrasting effects of CDCP1-activating antibodies on AKT activity in different cells, since AKT plays a positive role in migration in most cells. CDCP1-activating antibodies reduced the basal AKT phosphorylation (activity) in 1H1299 and H1373 cells, but had no effect on AKT in MCF10A, H1975, and HCT116 cells (FIG. 23A-23B). The contrasting effects of the antibodies on AKT activity in H1299 and MCF10A cells are consistent with their respective effects on cell invasion.
# [2] = system: H1299, MDA-MB-231, MCF10A and DLD-1 cells; assay: Transwell cell migration assay; type: cell-based, human; settings: MDA-MB-231 and H1299 cells
# Method: as §1, §2
# AKT = assay: Basal AKT activity / AKT phosphorylation (western blot); type: cell-based, human; settings: for basal AKT activity and AKT substrate phosphorylation: PC3 cells
# Method: as §2
# This inhibition was transient after an 80% reduction within 20 min, during prolonged antibody exposure the AKT phosphorylation returned towards the initial levels coincident with a reduction in the expression of CDCP1 protein expression.
# [3] = system: CDCP1 tyrosine phosphorylation; assay: CDCP1 activation by short-term antibody treatment (western blot); type: cell-based, human; settings: for activating or non-activating antibody: PC3 cells
# Method: (§3) In a variety of experimental approaches, CDCP1 antibodies also were tested for their ability to activate CDCP1 and its downstream targets. Short-term treatment of cells with antibodies stimulated CDCP1 tyrosine phosphorylation as well as downstream phosphorylation of SFKs and PKCδ in several lung (H1299) and breast cancer (MDA-MB-231) cell lines and a normal breast epithelial (MCF10A) cell line (FIG. 18A-18C).
# [4] = system: CDCP1 expression and phosphorylation; assay: CDCP1 degradation by prolonged antibody treatment (western blot); type: cell-based, human; settings: MDA-MB-231, MDA-MB-468 and H1299 cells
# Method: as §3
# mouse CDCP1-ECD = molecular target: T1, mouse CDCP1-ECD; assay: Surface plasmon resonance (Biacore T200) binding kinetics; settings: SPR, 25° C.
# Method: Specifically, the binding kinetics of anti-CDCP1 antibodies against recombinant human, cynomologus monkey and mouse CDCP1-ECD were determined using surface plasmon resonance (SPR) and a Biacore T200 instrument (GE Healthcare). An anti-human IgG antibody was amine coupled onto a CM5 carboxymethylated dextran sensor chip surface (GE Healthcare), using the manufacturer's recommendations, to densities of approximately 10,000-13,000 response units (RU). Each anti-CDCP1 antibody was diluted to 0.5 pg/mL in 10 mM HEPES pH 7.4, 0.15 M NaCl, 3 mM EDTA, 0.05% P-20 (HBS-EP+) and captured for about 20-23 seconds at a flow rate of 10 μL/min. Four 3-fold dilutions of CDCP1-ECD, ranging from 1,800 nM to 66.7 nM, were injected at a flow rate of 50 μLs/minute, associated for 54 seconds, and dissociated for 90 seconds. The sensorchip surface was regenerated with three 30 second pulses of 3M MgCl2 at a flow rate of 50 μL/minute. All injections used HBS-EP+ as both the running and sample buffer and were performed at 25° C. with a data collection rate of 1 Hz. Sensorgrams were double referenced by using both a control surface and buffer injections. Rate constants were determined by fitting the data to a 1:1 model with Biacore T200 evaluation software v3.0 and the equation KD=kd/ka.
# [5] = Analytical Hydrophobic Interaction Chromatography (HIC), relative hydrophobicity by elution time; type: physicochemical; settings: TSKgel Butyl-NPR column, 1.5 M to 0 M ammonium sulfate gradient
# Description: Multi-parametric optimization of anti-CDCP1 antibody CP13E10 was facilitated using rational design engineering. The structure of CP13E10 Fab in complex with CDCP1-ECD was solved with 1.9 Å resolution and used to design rational phage display libraries to enable identification of CP13E10 variants with improved biophysical properties while maintaining CDCP1 binding properties. CP13E10 antibody hydrophobicity was reduced to facilitate efficient conjugation processes for producing antibody drug conjugates (ADCs) by incorporating three point mutations (Y(H100)H, W(H100C)H, Y(H100H)H) into CP13E10 CDRH3 (CP13E10-34 variant). Protein for characterization was generated by transiently transfecting DNA encoding the anti-CP13E10-34 antibody variant and parental CP13E10 antibody into HEK-293 cells and the resultant protein was Protein-A affinity purified and buffer exchanged into PBS-CMF pH7.2 using G-25 columns.
# [6] = system: CDCP1 binding partners in PC3 cells; assay: Immunoprecipitation of CDCP1 binding partners with antibodies bound to intact cells; type: cell-based, human; settings: 80 min, 4° C.
# Method: To gain a greater understanding of the biological roles of CDCP1 and effects of CDCP1 antibody treatments, studies were performed to evaluate the involvement of CDCP1 on other downstream proteins and signaling pathways. […] Antibodies were added to intact cells (80 min, 4° C.). Negative control antibody and 24 (5 μg/ml); 76 (20 ng/m).
molecule,measurement,setting,value
B1,cell invasion,[1],decrease
same,cell migration,[2],reduce
same,basal AKT activity,AKT; H1373 and H1299 cells,decrease
same,basal AKT activity,"AKT; MCF10A, H1975 and HCT116 cells",no effect
same,basal AKT activity and AKT substrate phosphorylation,AKT,reduce basal AKT activity and AKT substrate phosphorylation
same,activating or non-activating antibody,[3],activating
same,CDCP1 activation,"[3]; short-term (5 min) treatment, H1299, MDA-MB-231 and MCF10A cells",CDCP1 activation
same,CDCP1 degradation,[4],CDCP1 degradation
same,fold increase in affinity for mouse CDCP1 versus CP13E10-34,mouse CDCP1-ECD,14 fold
B2,HIC elution time,[5],48.63 min
B3,non-preferential partner binding,[6],"β-Catenin, Transferrin Receptor, Importin-7"
same,preferential CDCP1 partner binding,[6],PARG1
same,basal AKT activity and AKT substrate phosphorylation,AKT,does not affect P-AKT
same,activating or non-activating antibody,[3],non-activating
B4,basal AKT activity,AKT; H1373 and H1299 cells,decrease
same,basal AKT activity,"AKT; MCF10A, H1975 and HCT116 cells",no effect
same,basal AKT activity and AKT substrate phosphorylation,AKT,reduce basal AKT activity and AKT substrate phosphorylation
same,activating or non-activating antibody,[3],activating
B5,non-preferential partner binding,[6],"β-Catenin, Transferrin Receptor, Importin-7"
same,preferential CDCP1 partner binding,[6],"SRC, PPP4R2"
same,basal AKT activity and AKT substrate phosphorylation,AKT,reduce basal AKT activity and AKT substrate phosphorylation
same,activating or non-activating antibody,[3],activating

# Reference: patent US12371507B2, “CDCP1 antibodies and antibody drug conjugates” (Beth Israel Deaconess Medical Center, priority 2018, dated 2025)
